Experimental data from the BET-seq Pho4 binding data (Le et al. 2018).
Some of the results follow. The energies were worked out here from pooled read counts, against the library average; single values are noisy.

The sequences below were run against T1, Pho4 (S. cerevisiae) (UniProt P07270) (assay: relative binding free energy (BET-seq); higher = weaker binding). Settings: reference: library average.
T1 sequence: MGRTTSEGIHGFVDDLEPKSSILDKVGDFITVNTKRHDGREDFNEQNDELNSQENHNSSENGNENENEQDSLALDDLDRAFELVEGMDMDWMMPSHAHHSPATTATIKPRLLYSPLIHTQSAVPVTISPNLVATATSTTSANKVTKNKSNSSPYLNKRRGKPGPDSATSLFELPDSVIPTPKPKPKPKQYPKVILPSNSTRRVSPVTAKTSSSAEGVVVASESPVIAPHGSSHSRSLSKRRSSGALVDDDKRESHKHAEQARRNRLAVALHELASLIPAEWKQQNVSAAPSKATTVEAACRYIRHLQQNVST

Sequence	relative binding free energy
TATGTCACGTGCGGGA	0 kcal/mol
AAGAGCACGTGCGGTT	-0.11 kcal/mol
CGGCGCACGTGGGTCG	-0.19 kcal/mol
TTTTTCACGTGTTAGT	0.31 kcal/mol
CGTGGCACGTGGACTG	-0.05 kcal/mol
TTTGGCACGTGTGGCC	0.02 kcal/mol
GTAAGCACGTGCTGGG	-0.2 kcal/mol
GGACGCACGTGTGGGA	-0.11 kcal/mol
GTTTGCACGTGGTGCG	-0.04 kcal/mol
AGTGGCACGTGAGTCT	-0.04 kcal/mol
TACTTCACGTGGTAGT	0.19 kcal/mol
CTTTTCACGTGTTTCT	0.27 kcal/mol
GTACTCACGTGGGTGG	0.17 kcal/mol
TGGTCCACGTGCTGTG	0.02 kcal/mol
AGGCACACGTGGGCGT	-0.08 kcal/mol
TTTATCACGTGGTTGG	0.16 kcal/mol
CTGGTCACGTGTGTAT	0.15 kcal/mol
TGTGCCACGTGTTATG	-0.06 kcal/mol
CGCGACACGTGGTGTA	0.02 kcal/mol
TGGTTCACGTGGATCT	0.28 kcal/mol
GGAGTCACGTGTGTGC	0.21 kcal/mol
TAGTGCACGTGTTCGA	-0.17 kcal/mol
TGTCACACGTGTATTT	-0.03 kcal/mol

Sequence	relative binding free energy
GTGAGCACGTGAATGT	0.39 kcal/mol
GTTCACACGTGTGAGT	0.09 kcal/mol
GCTTTCACGTGAGGTG	0.3 kcal/mol
AGATACACGTGGAGGG	-0.06 kcal/mol
GTAGACACGTGGGACG	-0.12 kcal/mol
TGGATCACGTGTAACG	0.29 kcal/mol
TAGCTCACGTGTTATT	0.03 kcal/mol
TTGTTCACGTGGCGTG	0.15 kcal/mol
GACGTCACGTGTTTTT	0.41 kcal/mol
CTGTGCACGTGATTGT	0.06 kcal/mol
AATTGCACGTGGCGTT	-0.04 kcal/mol
CGGGGCACGTGTAGGA	-0.01 kcal/mol
GTTGTCACGTGGCGAT	0.11 kcal/mol
GAGCTCACGTGGTTTA	0.24 kcal/mol
AGCTGCACGTGGGATT	-0.05 kcal/mol
TATAACACGTGAGGTA	0.26 kcal/mol
GTCGGCACGTGGATTT	0.04 kcal/mol
TAGTGCACGTGCATGT	-0.17 kcal/mol
TTTTTCACGTGTATTT	0.3 kcal/mol
TGAAGCACGTGTGCTT	-0.11 kcal/mol
ATGCTCACGTGTTTGT	0.14 kcal/mol
AAGGCCACGTGATGGT	0.08 kcal/mol
TGTTGCACGTGAATCG	0.2 kcal/mol

Sequence	relative binding free energy
GGTGTCACGTGTCGCG	0.2 kcal/mol
TTTTCCACGTGAATGG	0.28 kcal/mol
CGGGTCACGTGGCACG	0.08 kcal/mol
AACGTCACGTGTGAGG	0.15 kcal/mol
GGGCGCACGTGCGGCT	-0.17 kcal/mol
GTTTCCACGTGCAGTT	0.18 kcal/mol
AAAGTCACGTGTTAAG	0.04 kcal/mol
CTGGGCACGTGGCTTG	-0.17 kcal/mol
GAACTCACGTGTGTGG	0.25 kcal/mol
CTAGCCACGTGTGCGG	0.01 kcal/mol
AAGTTCACGTGGGCGG	0.12 kcal/mol
ATTGTCACGTGGTACA	0.06 kcal/mol
TGGGTCACGTGGGATA	-0.08 kcal/mol
AGTTGCACGTGTTCGA	-0.01 kcal/mol
GGGCCCACGTGTGTAG	-0.09 kcal/mol
ATCATCACGTGATTGG	0.23 kcal/mol
AGATTCACGTGGGTTC	0.26 kcal/mol
AATACCACGTGGGGTG	-0.3 kcal/mol
ATGTACACGTGAGGAG	0.18 kcal/mol
GTTATCACGTGTGCTG	0.16 kcal/mol
TTGTGCACGTGCGTTG	-0.08 kcal/mol
CGATTCACGTGGGTTA	0.15 kcal/mol
TGTTACACGTGATCAG	0.19 kcal/mol

Sequence	relative binding free energy
TGGATCACGTGATTGA	0.27 kcal/mol
AATTGCACGTGTGCTG	-0.01 kcal/mol
CGTTGCACGTGGTGAC	0.02 kcal/mol
GTGATCACGTGGTAAT	0.19 kcal/mol
CGTAACACGTGGGTTT	-0.2 kcal/mol
GGTGGCACGTGATTAC	0.08 kcal/mol
TTTTGCACGTGTGCAA	-0.11 kcal/mol
GAGGGCACGTGCTGGT	-0.12 kcal/mol
GTAATCACGTGGGGTA	0.06 kcal/mol
CCGGGCACGTGAGGAT	0.2 kcal/mol
TTGAGCACGTGAAGTT	0.3 kcal/mol
TTTTACACGTGGCTTC	0.09 kcal/mol
ATGAGCACGTGCGGGG	-0.11 kcal/mol
TATGTCACGTGCGTGG	-0.02 kcal/mol
GGTAACACGTGGGGCT	-0.22 kcal/mol
GACTGCACGTGTGGCG	0.16 kcal/mol
GTTATCACGTGTGGCT	0.27 kcal/mol
TATAGCACGTGAATAT	0.24 kcal/mol
CGTGTCACGTGATGGA	0.17 kcal/mol
TACTTCACGTGGTAAG	0.28 kcal/mol
TACCTCACGTGTAGGT	0.3 kcal/mol
TGTAACACGTGTGAGT	0.03 kcal/mol
TGTAACACGTGTGCTG	-0.05 kcal/mol

Sequence	relative binding free energy
GGGGTCACGTGGATAA	0.17 kcal/mol
CTGTTCACGTGTTGAG	0.34 kcal/mol
TGTGTCACGTGTGCGG	0.14 kcal/mol
TTGGTCACGTGTACCA	0.18 kcal/mol
AAAGTCACGTGTGGCT	0.09 kcal/mol
GTGAGCACGTGGGGCA	-0.18 kcal/mol
GGCGGCACGTGGTTTA	-0.1 kcal/mol
CGGGGCACGTGGTGTG	-0.13 kcal/mol
TTTAGCACGTGCTTTA	-0.26 kcal/mol
GCATTCACGTGGCTTT	0.26 kcal/mol
GAGTTCACGTGAAATG	0.32 kcal/mol
TGGGGCACGTGGGTGG	-0.16 kcal/mol
CTAGGCACGTGGATGA	-0.05 kcal/mol
GTTGTCACGTGATGTA	0.2 kcal/mol
TTCTTCACGTGTATTT	0.34 kcal/mol
TGGTACACGTGAGATA	0.3 kcal/mol
ATTCGCACGTGGGCGG	-0.21 kcal/mol
AAAATCACGTGAGGTT	0.38 kcal/mol
ACGTGCACGTGCAGGG	-0.05 kcal/mol
GTCTTCACGTGCTGGT	0.38 kcal/mol
ACTTGCACGTGGCTGT	-0.03 kcal/mol
GTGAGCACGTGGATGC	0.04 kcal/mol
GGGTCCACGTGTGTCT	0.15 kcal/mol
